We go through four substances from paper PMC8632923.

Sequences of proteins named here, by UniProt entry; tags and fusion partners are left off. A change or cut given only in a name is not applied to a line headed by its entry. Residues count along the entry.
UniProt P08581, residues 25-1390: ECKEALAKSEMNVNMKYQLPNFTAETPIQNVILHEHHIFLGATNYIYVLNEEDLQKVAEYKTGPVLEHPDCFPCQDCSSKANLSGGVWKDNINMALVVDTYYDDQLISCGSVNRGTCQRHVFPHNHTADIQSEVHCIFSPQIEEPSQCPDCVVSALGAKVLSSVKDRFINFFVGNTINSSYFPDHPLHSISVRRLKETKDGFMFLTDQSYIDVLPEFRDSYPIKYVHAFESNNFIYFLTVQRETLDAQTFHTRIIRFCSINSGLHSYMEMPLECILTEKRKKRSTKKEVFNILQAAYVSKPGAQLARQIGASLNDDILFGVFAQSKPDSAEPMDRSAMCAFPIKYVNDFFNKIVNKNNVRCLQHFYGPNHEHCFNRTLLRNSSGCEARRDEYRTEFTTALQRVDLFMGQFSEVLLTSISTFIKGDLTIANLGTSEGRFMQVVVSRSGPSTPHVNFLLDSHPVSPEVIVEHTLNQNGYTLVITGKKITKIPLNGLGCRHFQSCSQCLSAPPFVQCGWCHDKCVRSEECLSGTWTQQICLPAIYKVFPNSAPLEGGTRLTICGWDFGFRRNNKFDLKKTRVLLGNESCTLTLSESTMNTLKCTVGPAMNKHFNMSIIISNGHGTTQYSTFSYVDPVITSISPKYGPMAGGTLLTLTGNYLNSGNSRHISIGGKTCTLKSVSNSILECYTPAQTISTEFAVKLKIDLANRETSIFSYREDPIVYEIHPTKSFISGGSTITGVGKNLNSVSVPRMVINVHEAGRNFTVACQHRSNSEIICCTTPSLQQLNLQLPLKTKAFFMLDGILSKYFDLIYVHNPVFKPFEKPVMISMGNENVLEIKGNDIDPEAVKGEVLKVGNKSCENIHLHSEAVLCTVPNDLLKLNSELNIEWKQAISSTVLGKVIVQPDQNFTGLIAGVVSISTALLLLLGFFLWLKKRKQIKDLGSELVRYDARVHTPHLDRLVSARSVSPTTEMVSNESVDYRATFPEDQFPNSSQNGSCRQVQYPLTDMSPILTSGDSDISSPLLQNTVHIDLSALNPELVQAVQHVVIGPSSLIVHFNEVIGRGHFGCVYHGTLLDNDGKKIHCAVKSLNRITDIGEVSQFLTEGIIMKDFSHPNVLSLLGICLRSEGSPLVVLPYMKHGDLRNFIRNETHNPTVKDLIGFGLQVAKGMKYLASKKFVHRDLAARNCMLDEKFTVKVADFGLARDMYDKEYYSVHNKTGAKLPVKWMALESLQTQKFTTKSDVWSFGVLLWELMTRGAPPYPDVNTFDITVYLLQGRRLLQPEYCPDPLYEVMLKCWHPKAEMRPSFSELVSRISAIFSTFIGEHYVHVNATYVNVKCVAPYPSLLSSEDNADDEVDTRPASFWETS
UniProt Q9Y3D6: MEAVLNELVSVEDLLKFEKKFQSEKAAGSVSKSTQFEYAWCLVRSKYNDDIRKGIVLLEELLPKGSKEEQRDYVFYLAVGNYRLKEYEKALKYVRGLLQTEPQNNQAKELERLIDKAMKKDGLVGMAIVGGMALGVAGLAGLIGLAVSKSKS
UniProt Q9NQG6: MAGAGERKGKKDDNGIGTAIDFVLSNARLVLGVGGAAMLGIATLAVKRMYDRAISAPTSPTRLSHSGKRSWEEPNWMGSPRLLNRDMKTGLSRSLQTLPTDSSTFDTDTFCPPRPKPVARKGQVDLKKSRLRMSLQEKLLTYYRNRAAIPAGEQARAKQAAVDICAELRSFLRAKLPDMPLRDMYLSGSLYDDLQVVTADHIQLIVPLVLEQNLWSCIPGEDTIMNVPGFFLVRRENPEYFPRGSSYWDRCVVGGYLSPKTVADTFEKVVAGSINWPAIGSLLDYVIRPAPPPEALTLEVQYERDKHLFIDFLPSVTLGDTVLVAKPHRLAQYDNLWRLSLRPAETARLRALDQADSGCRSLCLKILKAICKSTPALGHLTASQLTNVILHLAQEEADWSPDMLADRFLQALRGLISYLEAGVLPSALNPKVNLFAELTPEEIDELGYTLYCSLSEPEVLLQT
UniProt O00429: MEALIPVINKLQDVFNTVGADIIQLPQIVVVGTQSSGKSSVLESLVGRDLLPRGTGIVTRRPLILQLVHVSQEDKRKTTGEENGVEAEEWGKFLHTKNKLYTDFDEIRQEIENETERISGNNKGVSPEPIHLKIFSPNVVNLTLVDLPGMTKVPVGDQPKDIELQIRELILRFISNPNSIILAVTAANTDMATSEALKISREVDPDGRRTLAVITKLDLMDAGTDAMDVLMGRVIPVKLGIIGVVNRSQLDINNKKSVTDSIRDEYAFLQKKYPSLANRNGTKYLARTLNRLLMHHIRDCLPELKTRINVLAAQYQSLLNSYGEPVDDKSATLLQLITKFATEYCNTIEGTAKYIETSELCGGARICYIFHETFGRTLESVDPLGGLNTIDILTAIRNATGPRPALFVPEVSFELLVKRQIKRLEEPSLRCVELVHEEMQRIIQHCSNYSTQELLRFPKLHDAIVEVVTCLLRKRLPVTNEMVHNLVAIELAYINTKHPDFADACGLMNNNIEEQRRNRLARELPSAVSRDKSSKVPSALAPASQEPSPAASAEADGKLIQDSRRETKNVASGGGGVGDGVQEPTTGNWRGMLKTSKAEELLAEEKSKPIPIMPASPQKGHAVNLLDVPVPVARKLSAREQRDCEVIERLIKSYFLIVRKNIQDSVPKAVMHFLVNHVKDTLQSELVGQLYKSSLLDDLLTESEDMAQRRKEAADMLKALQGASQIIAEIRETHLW

Results are given in words; binding and its absence hold for the method and conditions named. For part of these data: Binding seen in cells or lysates may run through a third protein. Some results given as binding are weak or reduced against the parent protein; the word gives no strength.

One assay concerns the target exogenous Met (human) (UniProt P08581). Kind of assay: co-IP; exogenous Met in Huh7 cells, with or without HGF (Supplementary Fig. S2f).
Assay [1] deals with Fis1 (endogenous) (human (endogenous in Huh7)) (UniProt Q9Y3D6). Kind of assay: co-IP; endogenous proteins in Huh7 lysate; IP with anti-Fis1 antibody (HGF, crizotinib or ARQ-197 treated cells) or with anti-Drp1 antibody (Met knockout cells and control).
Assay [2] addresses WT Fis1-Flag (PCDH-Fis1-Flag) (human) (UniProt Q9Y3D6). Put plainly: co-IP; Fis1−/− Huh7 cells transiently transfected with WT Fis1-Flag or Flag-tagged mutants; IP with anti-Flag antibody.
Assay [3] deals with Fis1-Flag Y87F (PCDH-Fis1-Flag-Y87F) (human) (UniProt Q9Y3D6). The assay is described as above.
The target of assay [4] is Fis1-Flag Y87E (PCDH-Fis1-Flag-Y87E) (human) (UniProt Q9Y3D6). The description is as above.
Assay [5] addresses Fis1-Flag Y38E (PCDH-Fis1-Flag-Y38E) (human) (UniProt Q9Y3D6). The assay is described as above.
Assay [6] addresses Fis1-Flag Y38F (PCDH-Fis1-Flag-Y38F) (human) (UniProt Q9Y3D6). The assay is described as above.
Assay [7] concerns the target WT Fis1-Flag (PCDH-Fis1-Flag) (human) (UniProt Q9Y3D6). Put plainly: pull-down; in vitro pull-down: WT or Y38F Fis1 immunoprecipitated with Flag beads from Huh7 cell lysates, incubated with Drp1 recombinant protein, Western blot; both purified.
The target in a further assay is ECFP-Fis1 Y38F (human) (UniProt Q9Y3D6). Put plainly: FRET or BRET; sensitized emission FRET (SE-FRET) between ECFP-Fis1 and mCherry-Drp1 in transfected, fixed HeLa cells, confocal microscope; cells with or without HGF, crizotinib, ARQ-197 or SU11274.
In another assay the target is ECFP-Fis1 Y38E (human) (UniProt Q9Y3D6). The description is as above.
Another assay has as its target ECFP-Fis1 WT (human) (UniProt Q9Y3D6). The assay is described as above.

Consider Mid51 (from UniProt Q9NQG6 1-463), for which, in the assay with exogenous Met (human), the binding entry is given as “no binding”.
“Drp1 (endogenous) (from UniProt O00429 1-736) (enzyme)”: the binding entry is recorded as “binds” in [1]; “binds weakly” with exogenous Met (human); “binds” in [2]; “binds” in [3]; “binds” in [4]; “binds” in assay [5]. Also, in [6], the binding entry is “binds weakly”.
Take “Drp1 recombinant protein (from UniProt O00429 1-736) (enzyme)”: the binding entry in [7] is “binds”.
In the case of “mCherry-Drp1 (from UniProt O00429 1-736) (enzyme)”, the binding result with ECFP-Fis1 Y38F (human) is “binds weakly”; with ECFP-Fis1 Y38E (human), “binds”; in the assay with ECFP-Fis1 WT (human), “binds”.
